This note sets out measurements from PubChem BioAssay AID493035 (The Scripps Research Institute Molecular Screening Center, 2011).

Where “and” joins values, the source holds several entries; their conditions need not be identical. Identical values can stand only once. Hit rate of the full screen: of about 2,000 compounds, about 45 (2%) were called active.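 How the source made its calls: active means inhibition above the mean of all tested compounds plus 3 SD (cut at about 49% in these data); inactive means the rest.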 The list shows a part of the results.

The target in the assay is Perilipin-5 (Homo sapiens) + 1-acylglycerol-3-phosphate O-acyltransferase ABHD5 (Homo sapiens) (UniProt Q00G26+Q8WTS1). The assay can be described thus: blockers of ABHD5 binding to perilipin-5 – cell lysate, split luciferase complementation, luminescence, NIH validation set, pilot screen (AID 493035).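 Further: 0% = DMSO only wells while the 100% control is not stated.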 As to conditions: split G. princeps luciferase complementation, lysates, 4 h; at 7.9 µM, active compounds read high.
Sequence of UniProt Q00G26 (Q00G26 whole entry, looked up): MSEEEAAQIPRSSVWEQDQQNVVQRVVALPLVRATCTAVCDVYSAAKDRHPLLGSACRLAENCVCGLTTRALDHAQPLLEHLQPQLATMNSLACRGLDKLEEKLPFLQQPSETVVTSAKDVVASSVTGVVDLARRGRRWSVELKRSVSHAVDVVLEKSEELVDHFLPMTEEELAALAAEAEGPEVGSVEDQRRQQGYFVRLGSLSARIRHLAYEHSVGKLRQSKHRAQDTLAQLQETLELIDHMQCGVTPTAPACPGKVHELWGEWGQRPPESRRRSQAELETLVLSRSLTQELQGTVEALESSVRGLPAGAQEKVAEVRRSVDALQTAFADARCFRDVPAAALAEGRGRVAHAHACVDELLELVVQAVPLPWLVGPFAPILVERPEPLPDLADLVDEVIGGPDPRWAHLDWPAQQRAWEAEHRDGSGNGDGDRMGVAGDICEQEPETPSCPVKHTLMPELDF
Sequence of UniProt Q00G26 (Q8WTS1 whole entry, looked up): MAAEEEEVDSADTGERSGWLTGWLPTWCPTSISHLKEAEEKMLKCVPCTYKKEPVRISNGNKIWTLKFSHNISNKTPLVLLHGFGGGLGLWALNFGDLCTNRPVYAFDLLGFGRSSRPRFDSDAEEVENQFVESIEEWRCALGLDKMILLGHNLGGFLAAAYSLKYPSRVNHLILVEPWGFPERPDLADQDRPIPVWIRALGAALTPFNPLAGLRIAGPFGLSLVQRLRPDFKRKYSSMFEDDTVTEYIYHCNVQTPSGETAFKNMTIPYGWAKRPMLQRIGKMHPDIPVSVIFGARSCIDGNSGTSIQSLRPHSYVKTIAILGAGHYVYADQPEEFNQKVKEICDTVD
With `CC(=O)SC1CC2=CC(=O)CCC2(C)C2CCC3(C)C(CCC34CCC(=O)O4)C12` (configuration not stated), the inhibition is inactive: 10.8%.

With `COC(=O)C1=C(C)NC(C)=C(C(=O)OCCN(C)Cc2ccccc2)C1c1cccc([N+](=O)[O-])c1` (configuration not stated), the inhibition is inactive: -8.85%.

Consider `COc1ccc(-c2nnc(-c3cc4c(ccc5ccccc54)oc3=O)o2)cc1`, for which the inhibition is inactive: 5.2%.

Turning to `CC(C)CN1CC(C(=O)O)CC1=O` (configuration not stated), the inhibition was inactive: 1.52%.

Take `CNc1c2c(nn1C)CCCC2`: the inhibition is inactive: -4.92%.

On to `COc1c2ccoc2nc2c(OC)cccc12`, for which the inhibition was inactive: -5.55%.

In the case of `CC(C)=CCC(C)(C)/C=N/NC(N)=O`, the inhibition is inactive: -11.2%.

Regarding `Cc1ccccc1C(=O)Nc1ccccc1C(=O)NCC(C)C`, the inhibition is inactive: -5.63%.

With `O=C(/C=C/c1ccccc1)/C=C/c1ccccc1`, the inhibition is active: 92.3%.

With `CC(OC(=O)c1cc(=O)[nH]c2ccccc12)C(=O)c1ccccc1` (configuration not stated), the inhibition is inactive: 1.22%.

As to `CCc1cc2c(=O)c(-c3nc(C)cs3)c(CCCC(=O)O)oc2cc1O`, the inhibition is inactive: -4.5%.

In the case of `Cc1cnc(C(=O)NCCc2ccc(S(=O)(=O)NC(=O)NC3CCCCC3)cc2)cn1`, the inhibition is inactive: 4.38%.

On to `CC1(C)C2CCC1(C(=O)O)c1nc3ccccc3nc12` (configuration not stated), for which the inhibition is inactive: -0.64%.

Take `Cc1ccc(NCCC(=O)c2ccccc2)cc1Cl`: the inhibition is inactive: -0.92%.

As to `CCSC(SCC)[C@H](O)[C@@H](O)[C@H](O)[C@H](O)CO`, the inhibition was inactive: -2.61%.

For `O=C(CCSc1ccccc1)N1CCCC1`, the inhibition is inactive: -3.3%.

On to `COc1ccccc1C(CCN(Cc1ccccc1)C(C)=O)c1ccco1` (configuration not stated), for which the inhibition is inactive: 7.01%.

Regarding `COc1ccc2[nH]c(=O)c(CN(C(=O)c3ccco3)C(C)C)cc2c1`, the inhibition is inactive: -0.16%.

Consider `CCCCNc1ccc(C(=O)OCCN(C)C)cc1`, for which the inhibition was inactive: 1.98%.

In the case of `CC(C)NS(=O)(=O)c1ccc(OCC(=O)Nc2cccc(F)c2)cc1`, the inhibition was inactive: -6.57%.

In the case of `CCOC(=O)C1(Cc2cccc(Cl)c2)CCCN(C2CCN(C(C)=O)CC2)C1` (configuration not stated), the inhibition is inactive: -1.98%.

`CN(C)CC/C=C1\c2ccccc2COc2ccccc21`: the inhibition was inactive: -9.28%.

Consider `COC(=O)c1cc(-c2ccc(C)o2)nc2ccccc12`, for which the inhibition is active: 72.8%.

As for `CC1(C)c2ccccc2N2CC(=O)NC21/C=C/c1ccco1` (configuration not stated), the inhibition is active: 50.2%.

As for `CC(C)CCc1noc(CN2CCC(CCN3CCCC3=O)CC2)n1`, the inhibition was inactive: -3.52%.

Consider `CCCCC(=O)O[C@]1(C(=O)CO)CC[C@H]2[C@@H]3CCC4=CC(=O)CC[C@]4(C)[C@H]3[C@@H](O)C[C@@]21C`, for which the inhibition was inactive: 0.47%.

In the case of `Cc1oc2c(C)c3oc(=O)c4c(c3cc2c1C)CCCC4`, the inhibition is inactive: 1.69%.

Turning to `CCc1cccc2c3c([nH]c12)C(CC)(CC(=O)O)OCC3` (configuration not stated), the inhibition is inactive: -13.7%.

Take `CCOC(=O)[C@H](CCc1ccccc1)N[C@@H](C)C(=O)N1CCC[C@H]1C(=O)O`: the inhibition was inactive: -7.92%.

For the molecule `O=C(Nc1ccc(N2CCOCC2)cc1)c1ccc(-c2ccccc2[N+](=O)[O-])o1`, the inhibition was inactive: -0.91%.

Regarding `C[C@]12CC[C@@H]3c4ccc(O)cc4CC[C@H]3[C@@H]1C[C@@H](O)[C@@H]2O[C@@H]1O[C@H](C(=O)O)[C@@H](O)[C@H](O)[C@H]1O`, the inhibition is inactive: 4.44%.

With `Cc1ccc2c(c1)C1(C(=O)N2)N2CCCC2C(C(=O)c2ccc3ccccc3c2)C12C(=O)Nc1ccccc12` (configuration not stated), the inhibition is inactive: -3.32%.

With `CC(C)=CCC/C(C)=C/CC/C(C)=C/CC/C(C)=C/CC1=C(C)C(=O)c2ccccc2C1=O`, the inhibition was inactive: 20.9%.

For the molecule `CCC(=O)Nc1ccc(C(=O)N2CCN(C(=O)c3ccco3)CC2)cc1`, the inhibition was inactive: -5.79%.

With `O=C(Nc1ccc(F)c([N+](=O)[O-])c1)c1ccc2c(c1)OCCO2`, the inhibition was inactive: -16.1%.

As for `COC(=O)c1ccc(OCCCCN2CC(C)OC(C)C2)cc1` (configuration not stated), the inhibition was inactive: 0.83%.

Regarding `Cc1ccc2c(c1)C1OCCC1C1N2C(=O)C2C(C(=O)O)C3C=CC21O3` (configuration not stated), the inhibition is inactive: -5.66%.

Consider `COc1ccccc1Oc1c(C)oc2c(CN3CCN(CCO)CC3)c(O)ccc2c1=O`, for which the inhibition is inactive: 1.57%.

With `COc1ccccc1N=CC1=C(O)CC(c2ccccc2)CC1=O` (configuration not stated), the inhibition is inactive: 4.76%.

`CCCC(=O)Nc1ccccc1NC(C)=O`: the inhibition is inactive: -8.51%.

On to `COc1ccc(CNC(=O)c2cc3c(=O)n4ccccc4nc3n(Cc3cccnc3)c2=N)cc1`, for which the inhibition was inactive: 4.08%.

For the molecule `C[C@]12CCC(=O)C[C@@H]1CC[C@@H]1[C@@H]2CC[C@]2(C)C=CC[C@@H]12`, the inhibition is inactive: -10.2%.

For `OCCOCCN1CCN(C(c2ccccc2)c2ccc(Cl)cc2)CC1` (configuration not stated), the inhibition is inactive: -4.95%.

Regarding `COc1ccc(OC)c(NC2=C(Cl)C(=O)N(Cc3ccccc3)C2=O)c1`, the inhibition is inactive: 11%.

`COc1ccc(CNC(=O)C2CCCN2C)cc1OC` (configuration not stated): the inhibition was inactive: -1.26%.

Regarding `O=C(CN1C(=O)C2CCc3[nH]c4ccccc4c3C2C1=O)N1CCCC1` (configuration not stated), the inhibition is inactive: -2.9%.

Turning to `CCOC(=O)c1cc2c(nc1N)CC(C)(CC)OC2` (configuration not stated), the inhibition is inactive: 1.63%.

As to `Nc1cc(-c2ccncc2)c[nH]c1=O`, the inhibition is active: 75.3%.

`Cc1cccc(C2=N/C(=C\c3cccnc3)C(=O)O2)c1`: the inhibition was inactive: -14%.

Take `COc1ccc(C2C(C(=O)c3ccco3)=C(O)C(=O)N2CC2CCCO2)cc1` (configuration not stated): the inhibition is inactive: -0.65%.

`CS(=O)c1ccccc1O` (configuration not stated): the inhibition is inactive: 6.47%.

On to `COC(=O)c1ccc(COc2ccc3c(C)c(C)c(=O)oc3c2C)o1`, for which the inhibition is inactive: 6.94%.

Regarding `CC[N+]1(CC)CC2=Cc3ccccc3CC2C1` (configuration not stated), the inhibition was inactive: -2.96%.

Take `C=C1C2(C(=O)Nc3ccc(SC(F)F)cc3)CCC(C2)C1(C)C` (configuration not stated): the inhibition is inactive: 2.97%.

As to `O=C1OC(=O)C2C1[C@@H]1CC[C@H]2O1` (some centres not stated), the inhibition is inactive: 4.31%.

For the molecule `CCNC(=O)C(Cc1ccccc1)NC(=O)OCc1ccccc1` (configuration not stated), the inhibition is inactive: -5.97%.

Regarding `COc1ccc2c(CCNC(=O)c3ccc([N+](=O)[O-])cc3)c[nH]c2c1`, the inhibition is inactive: -25%.

`Cc1cccc(Oc2coc3cc(OC(=O)c4cncc(Br)c4)ccc3c2=O)c1`: the inhibition is inactive: 7.68%.

As for `COc1ccc2c(c1)CC[C@@H]1[C@@H]2CC[C@]2(C)C(=O)CC[C@@H]12`, the inhibition was inactive: -11.5%.

`OC(CCN1CCCCC1)(c1ccccc1)C1CCCCC1` (configuration not stated): the inhibition is inactive: -8.85%.

For `Cc1ccc2nc3c(cc(C(=O)NCC4CCCO4)c(=N)n3CCCOC(C)C)c(=O)n2c1` (configuration not stated), the inhibition was inactive: 8.06%.

For `Cc1coc2c1c(C)cc1oc(=O)c(Cc3ccccc3)c(C)c12`, the inhibition is inactive: 0.1%.

As to `Cc1cc(C)c2c(CCl)cc(=O)oc2c1`, the inhibition is inactive: 7.39%.

Regarding `COc1cc(C2Nc3ccccc3NC3=C2C(=O)CC(c2ccc(OC)c(OC)c2)C3)ccc1O` (configuration not stated), the inhibition was inactive: 1.84%.

With `CCOC(=O)C(=Cc1ccccc1OC)C(=O)OCC`, the inhibition was active: 47.9%.

For the molecule `Cc1ccccc1-c1coc2cc(O)ccc2c1=O`, the inhibition is inactive: 4.3%.

Turning to `COc1ccc(C(=O)Nc2ccc(OC)c([N+](=O)[O-])c2)cc1Br`, the inhibition was inactive: 3.5%.

With `Fc1ccccc1CNCCC(Cc1ccccc1)c1ccc2c(c1)OCO2` (configuration not stated), the inhibition was inactive: -17.1%.

On to `CCC1CCc2c(sc(NC(=O)c3cccnc3)c2C(N)=O)C1` (configuration not stated), for which the inhibition was inactive: -3.42%.

`Cn1c([N+](=O)[O-])cnc1COC(N)=O`: the inhibition is inactive: -14.5%.

For `COc1cc(C(=O)CCN2CCC(c3ccccc3)C2)cc(OC)c1OC` (configuration not stated), the inhibition is inactive: 13.3%.

As for `CCCCNC(=O)NS(=O)(=O)c1ccc(C)cc1`, the inhibition is inactive: -4.64%.

As for `CC(=O)[C@H]1CC[C@H]2[C@@H]3C[C@H](C)C4=CC(=O)CC[C@]4(C)[C@H]3[C@@H](O)C[C@]12C`, the inhibition was inactive: 5.21%.

For `CC(C)CC1c2[nH]c3ccccc3c2CCN1C(=O)CCC(=O)N(C)C` (configuration not stated), the inhibition is inactive: -11.6%.

With `CC(=O)N1c2ccccc2C(C)=CC1(C)C`, the inhibition is inactive: -3.26%.

Regarding `CCOCc1cc(C)[nH]c(=O)c1C#N`, the inhibition was inactive: 5.69%.

In the case of `O=C(CCC(=O)c1cccs1)c1cccs1`, the inhibition was inactive: -5.93%.

Consider `O=C1c2ccccc2C2(c3ccccc3)NCCN12` (configuration not stated), for which the inhibition is inactive: 0.12%.

Turning to `Cc1nnc(SCC(=O)N2CCCC(C(=O)c3ccc(Cl)cc3)C2)o1` (configuration not stated), the inhibition is inactive: 0.98%.

For the molecule `CC(=O)Nc1cc(O)cc(O)c1`, the inhibition was inactive: -11.9%.

`Cc1ccc(C(=O)NCCNC(=O)c2ccccc2)cc1`: the inhibition was inactive: -6.77%.

Take `CNCCC(Oc1ccc(C(F)(F)F)cc1)c1ccccc1` (configuration not stated): the inhibition is inactive: -11.3%.

As for `COc1ccc2nc(NC(=O)Nc3ccccc3)sc2c1`, the inhibition was inactive: -9.65%.

For `COC(=O)c1cc(OC)c(OC)c(OC)c1[N+](=O)[O-]`, the inhibition is inactive: 7.79%.

Regarding `C[C@]12CC[C@@H]3c4cc(O)c(O)cc4CC[C@H]3[C@@H]1CC[C@@H]2O`, the inhibition was inactive: 12.8%.

Turning to `COc1cccc2c(O)cc(=O)n(C)c12`, the inhibition was inactive: -4.25%.

In the case of `CCCCOc1cc(C(=O)NCCN(CC)CC)c2ccccc2n1`, the inhibition is inactive: -15.8% and inactive: -6.74%.

In the case of `COc1cccc(CC2CC(=O)N(c3ccc4c(C)cc(=O)oc4c3)C2=O)c1` (configuration not stated), the inhibition is inactive: -4.81%.

In the case of `CCS(=O)(=O)CCn1c([N+](=O)[O-])cnc1C`, the inhibition is inactive: -6.22%.

`O=C1CCc2cc(OCCCCc3nnnn3C3CCCCC3)ccc2N1`: the inhibition was inactive: 2.52%.

Consider `C(=C\c1ccc2ccccc2n1)/c1ccccc1`, for which the inhibition is inactive: 3.52%.

For the molecule `c1cc(-c2ccncc2)ccn1`, the inhibition was inactive: -3.86%.

`Cc1csc(CCc2nc(C)cs2)n1`: the inhibition is inactive: -0.75%.

For `O=C(Oc1ccc2c3c(c(=O)oc2c1)CCCC3)c1ccco1`, the inhibition is inactive: -2.62%.

For the molecule `COc1ccc(-c2c(C)c3ccc(OCC(C)=O)cc3oc2=O)cc1`, the inhibition was inactive: 1.83%.

On to `CN1CC2CCCC3(C1)C(=O)NC1(CCCCC1)N=C23` (configuration not stated), for which the inhibition was inactive: -2.89%.

As to `COc1ccc(-c2cc(C(=O)N3CCOCC3)c3cc(C)ccc3n2)cc1`, the inhibition is inactive: -3.27%.

In general, inhibition refers to the change of the read-out against control, counted positive when it falls.
